In paper PMC4336329 (PLoS ONE, 2015):
Screen size: about 310,000 compounds; about 2,200 (0.71%) showed an effect of 50% or more. Effects have a minus sign here. The list shows a part of the results.

Each molecule was assayed against human ether-à-go-go-related gene (hERG) potassium channel (human, UniProt Q12809) (assay: primary screen, population patch clamp on CHO cells stably expressing hERG).
Sequence of human ether-à-go-go-related gene (hERG) potassium channel (Q12809 whole entry, looked up): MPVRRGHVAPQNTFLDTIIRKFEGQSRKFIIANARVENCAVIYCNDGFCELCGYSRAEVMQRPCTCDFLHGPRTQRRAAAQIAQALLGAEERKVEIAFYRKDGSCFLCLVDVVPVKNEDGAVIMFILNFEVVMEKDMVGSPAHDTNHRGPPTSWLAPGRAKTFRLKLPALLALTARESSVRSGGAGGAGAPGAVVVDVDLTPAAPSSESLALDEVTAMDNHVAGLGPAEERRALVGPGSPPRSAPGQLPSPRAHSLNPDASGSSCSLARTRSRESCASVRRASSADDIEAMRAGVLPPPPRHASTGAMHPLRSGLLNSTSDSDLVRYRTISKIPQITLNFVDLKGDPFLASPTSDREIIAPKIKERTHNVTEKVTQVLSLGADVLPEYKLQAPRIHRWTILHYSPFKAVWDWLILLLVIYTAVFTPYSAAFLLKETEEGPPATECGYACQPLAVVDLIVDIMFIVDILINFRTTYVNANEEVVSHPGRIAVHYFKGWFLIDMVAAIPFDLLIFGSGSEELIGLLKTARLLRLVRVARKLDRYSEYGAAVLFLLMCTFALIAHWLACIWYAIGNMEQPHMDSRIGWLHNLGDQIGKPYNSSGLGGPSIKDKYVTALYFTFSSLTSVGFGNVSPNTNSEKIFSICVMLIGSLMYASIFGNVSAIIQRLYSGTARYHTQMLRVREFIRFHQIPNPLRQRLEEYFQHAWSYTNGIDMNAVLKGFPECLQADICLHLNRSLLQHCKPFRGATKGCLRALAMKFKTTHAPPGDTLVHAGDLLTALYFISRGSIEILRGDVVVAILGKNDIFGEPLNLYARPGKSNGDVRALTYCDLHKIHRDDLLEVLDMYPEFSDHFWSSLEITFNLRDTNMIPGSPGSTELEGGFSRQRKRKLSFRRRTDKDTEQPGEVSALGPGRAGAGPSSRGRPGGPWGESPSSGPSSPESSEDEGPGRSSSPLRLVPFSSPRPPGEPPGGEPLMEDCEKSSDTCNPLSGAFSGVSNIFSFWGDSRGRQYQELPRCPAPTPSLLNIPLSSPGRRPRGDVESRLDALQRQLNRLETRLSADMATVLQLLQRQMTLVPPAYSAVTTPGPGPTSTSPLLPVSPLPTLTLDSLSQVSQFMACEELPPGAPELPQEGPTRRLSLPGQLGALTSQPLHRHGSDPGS
In the case of `O=C(c1c[nH]c2ccc(F)cc2c1=O)N1CCCCCC1`, the “hERG current change (%, negative = inhibition) at 1uM” value is reported as 12.3%.
With `O=C(NNC(=O)C1CCC1)c1cccc(Cl)c1` the “hERG current change (%, negative = inhibition) at 1uM” value was 5.6%.
For `O=C(Nc1nc2c(F)cc(F)cc2s1)C1COc2ccccc2O1` (stereo not drawn), the “hERG current change (%, negative = inhibition) at 1uM” value was 8.72%.
For `COc1ccc(N(CC(=O)NCCSc2ccccc2)S(=O)(=O)c2ccccc2)cc1OC`, the “hERG current change (%, negative = inhibition) at 1uM” value was 7.09%.
With `CC(C)CN1C(=O)/C(=C/c2ccco2)NC1=S` the “hERG current change (%, negative = inhibition) at 1uM” value was 17%.
With `CC1=CC=CN2CC(O)CN=C12.Cl` (stereo not drawn) the “hERG current change (%, negative = inhibition) at 1uM” value was 9.24%.
In the case of `Cl.NCC1CC2c3ccccc3C1c1ccccc12` (stereo not drawn), the “hERG current change (%, negative = inhibition) at 1uM” value is reported as 10.2%.
`O=C(NCCCO)C(=O)Nc1cc2c3c(c1)CCN3C(=O)CC2` was tested, and the “hERG current change (%, negative = inhibition) at 1uM” value was 10.4%.
In the case of `Cc1nc2c(sc3nc(N4CCOCC4)c4c(c32)CC(C)(C)OC4)c(-c2ccccc2)c1C(=O)O`, the “hERG current change (%, negative = inhibition) at 1uM” value is reported as 11%.
In the case of `CCC(CC)C(=O)Nc1nnc(SCC(=O)NC2CC2)s1`, the “hERG current change (%, negative = inhibition) at 1uM” value is reported as 14%.
With `O=C(c1cc(F)ccc1F)N1CCC(N2CCC(C(=O)N3CCCC3)CC2)CC1` the “hERG current change (%, negative = inhibition) at 1uM” value was 16.9%.
For `CCn1c(=O)n(CC(=O)Nc2cccc(OC)c2)c(=O)c2ccccc21`, the “hERG current change (%, negative = inhibition) at 1uM” value was -1.16%.
In the case of `COc1ccccc1NC(=S)NC(NC(C)=O)C(Cl)(Cl)Cl` (stereo not drawn), the “hERG current change (%, negative = inhibition) at 1uM” value is reported as 8.67%.
With `COc1ccc(NC(=O)CC2C(=O)N(c3ccccc3)C(=O)N2CCc2cccs2)cc1` (stereo not drawn) the “hERG current change (%, negative = inhibition) at 1uM” value was 10%.
With `Cc1cc(Br)c(NC(=O)CCl)c(Br)c1` the “hERG current change (%, negative = inhibition) at 1uM” value was -3.82%.
For `NS(=O)(=O)c1ccc(CCNC(=O)CCc2ccccc2)cc1`, the “hERG current change (%, negative = inhibition) at 1uM” value was -3.02%.
`Cc1c(NC(=O)Nc2cccc(Cl)c2Cl)c(=O)n(-c2ccccc2)n1C` was tested, and the “hERG current change (%, negative = inhibition) at 1uM” value was -2.55%.
With `O=C(N/N=C/c1cccc(O)c1)NC1CCCCC1` the “hERG current change (%, negative = inhibition) at 1uM” value was 5.29%.
In the case of `Cc1cc(C)n(-c2nc(N(C)C)nc(N(C)C)n2)n1`, the “hERG current change (%, negative = inhibition) at 1uM” value is reported as 10.7%.
`CN(C)Cc1c(O)ccc2c1O/C(=C\C=C\c1ccccc1)C2=O` was tested, and the “hERG current change (%, negative = inhibition) at 1uM” value was 5.72%.
In the case of `CC(Cc1ccccc1)NC(=O)c1cc2ccccc2o1` (stereo not drawn), the “hERG current change (%, negative = inhibition) at 1uM” value is reported as 16.1%.
In the case of `COc1ccc(CC(=O)Nc2ccc(C(N)=O)cc2)cc1`, the “hERG current change (%, negative = inhibition) at 1uM” value is reported as 10.1%.
For `O=C(O)C1(c2ccccc2)CCN(S(=O)(=O)c2ccc(F)c(F)c2)CC1`, the “hERG current change (%, negative = inhibition) at 1uM” value was 2.32%.
In the case of `CC(C)N(C)Cc1nnnn1CC(=O)NCCc1cccc(C(F)(F)F)c1`, the “hERG current change (%, negative = inhibition) at 1uM” value is reported as 9.44%.
In the case of `CCOC(=O)c1sc(NC(=O)C2CC2)cc1C`, the “hERG current change (%, negative = inhibition) at 1uM” value is reported as 9.63%.
`CC1=C(C(=O)N2CCOCC2)C(c2ccc(-c3ccccc3)cc2)NC(=S)N1` (stereo not drawn) was tested, and the “hERG current change (%, negative = inhibition) at 1uM” value was -4.56%.
In the case of `COC(=O)CC1C(=O)NCCN1C(=S)Nc1cccc(C)c1` (stereo not drawn), the “hERG current change (%, negative = inhibition) at 1uM” value is reported as 4.32%.
`Cc1ccc(NC(=O)C2CCN(S(=O)(=O)c3ccc4c(c3)NC(=O)C(C)S4)CC2)c(Cl)c1` (stereo not drawn) was tested, and the “hERG current change (%, negative = inhibition) at 1uM” value was 13.2%.
For `Cc1nc(NC(=O)/C=C/c2ccc(Cl)cc2Cl)sc1C(=O)N(C)C`, the “hERG current change (%, negative = inhibition) at 1uM” value was 18.8%.
`CCOc1ccc(CCNC(=O)c2cc3sccc3n2CC)cc1OCC` was tested, and the “hERG current change (%, negative = inhibition) at 1uM” value was 14.1%.
In the case of `O=S(=O)(Nc1ncccn1)c1ccc(NS(=O)(=O)c2cccc(Cl)c2Cl)cc1`, the “hERG current change (%, negative = inhibition) at 1uM” value is reported as 29.5%.
`O=S(=O)(c1ccc(-c2ccccn2)s1)N1CCC2(CC1)OCCO2` was tested, and the “hERG current change (%, negative = inhibition) at 1uM” value was 7.7%.
For `COC(=O)N/N=C/c1ccc(OCCSc2ccc(Cl)cc2)c(OC)c1`, the “hERG current change (%, negative = inhibition) at 1uM” value was 1.07%.
In the case of `O=C(COC(=O)CCC(=O)c1ccc2c(c1)OCCO2)NCc1ccc2c(c1)OCO2`, the “hERG current change (%, negative = inhibition) at 1uM” value is reported as 16.3%.
With `O=C(NCc1ccccc1)c1ccccc1Br` the “hERG current change (%, negative = inhibition) at 1uM” value was 1.52%.
`CN(C)CCNC(=O)c1c(CSc2ccccc2)noc1C(=O)NCc1ccccc1` was tested, and the “hERG current change (%, negative = inhibition) at 1uM” value was 8.93%.
With `CC(=O)c1nnn(-c2ccc([N+](=O)[O-])cc2)c1C` the “hERG current change (%, negative = inhibition) at 1uM” value was 5.63%.
`O=C(CC1SC(=Nc2ccc(OC(F)F)cc2)N(CCC2=CCCCC2)C1=O)Nc1ccccc1F` (stereo not drawn) was tested, and the “hERG current change (%, negative = inhibition) at 1uM” value was 15.3%.
For `COc1ccc(OC(C)C(=O)Nc2ccccc2C(F)(F)F)cc1` (stereo not drawn), the “hERG current change (%, negative = inhibition) at 1uM” value was 8.42%.
In the case of `N#C/C=C1\n2c(nc3ccccc32)OC12CCCCC2`, the “hERG current change (%, negative = inhibition) at 1uM” value is reported as -15.5%.
For `CC1(C)Cc2c(cnn2-c2ccccc2)C(NC(=O)CCN2CCCCO2)C1` (stereo not drawn), the “hERG current change (%, negative = inhibition) at 1uM” value was 26.2%.
With `CN1CCC(NC(=O)NC2CCCCC2)CC1` the “hERG current change (%, negative = inhibition) at 1uM” value was 9.81%.
`Cc1nc(C)c(-c2ccnc(/N=C/NO)n2)s1` was tested, and the “hERG current change (%, negative = inhibition) at 1uM” value was 4.86%.
With `CC(OC(=O)C1CCCCC1)c1nc2ccccc2[nH]1` (stereo not drawn) the “hERG current change (%, negative = inhibition) at 1uM” value was 13.5%.
In the case of `Cc1cccc(C(=O)NCCc2ccc(S(N)(=O)=O)cc2)c1[N+](=O)[O-]`, the “hERG current change (%, negative = inhibition) at 1uM” value is reported as -3.07%.
For `O=C(NCCN1C(=O)CCC1=O)c1ccncc1`, the “hERG current change (%, negative = inhibition) at 1uM” value was 3.93%.
`O=C(NN1C(=O)c2ccccc2NC1c1ccc([N+](=O)[O-])o1)c1ccc([N+](=O)[O-])cc1` (stereo not drawn) was tested, and the “hERG current change (%, negative = inhibition) at 1uM” value was -0.694%.
For `C=CCN(C(C)=O)C1CC(=O)N(c2ccc(OCCC)cc2)C1=O` (stereo not drawn), the “hERG current change (%, negative = inhibition) at 1uM” value was 4.41%.
With `COc1ccc(-c2cc(=O)oc3cc(OCC(=O)N4CCOCC4)ccc23)cc1` the “hERG current change (%, negative = inhibition) at 1uM” value was 0.189%.
In the case of `Cc1cccc(NC(=O)N2CCCCCC2)c1C`, the “hERG current change (%, negative = inhibition) at 1uM” value is reported as 14.7%.
In the case of `O=C1NC(=O)N(c2ccccc2)C1=O`, the “hERG current change (%, negative = inhibition) at 1uM” value is reported as 8.9%.
`Cc1cccc(Nc2ccc(NCc3ccccc3)nn2)c1` was tested, and the “hERG current change (%, negative = inhibition) at 1uM” value was 2.55%.
With `C=CCn1c(SCC(=O)Nc2ccc(C)cc2C)nnc1-c1cccnc1` the “hERG current change (%, negative = inhibition) at 1uM” value was -4.46%.
For `Cc1noc(C)c1COc1ccccc1C(=O)Nc1ccc(C(N)=O)cc1`, the “hERG current change (%, negative = inhibition) at 1uM” value was 9.47%.
For `NC(=O)C1CCN(S(=O)(=O)Cc2ccccc2Cl)CC1`, the “hERG current change (%, negative = inhibition) at 1uM” value was 7.91%.
For `COc1ccc(/C=N/c2nc3ccccc3n2CCN2CCCCC2)cc1OC`, the “hERG current change (%, negative = inhibition) at 1uM” value was 10.9%.
`CCOc1ccc(C)cc1S(=O)(=O)NC1CCCCCC1` was tested, and the “hERG current change (%, negative = inhibition) at 1uM” value was 4.97%.
In the case of `COc1ccccc1-n1c(-c2ccc(Cl)cc2)c[nH]c1=S`, the “hERG current change (%, negative = inhibition) at 1uM” value is reported as 9.1%.
`CC1(C)OC(=O)C(=CNc2ncccn2)C(=O)O1` was tested, and the “hERG current change (%, negative = inhibition) at 1uM” value was 5.28%.
With `COc1cccc(NC(=S)Nc2cc(C)cc(C)n2)c1` the “hERG current change (%, negative = inhibition) at 1uM” value was -7.21%.
